This is one part of the list. At the low end of the ranking, values are background and their order means little. The protein was read in a cell extract, so binding may be indirect.

For the assay, the target named is T1, HNF4alpha8 (COS-7 nuclear extract) (UniProt P41235-5).
T1 sequence: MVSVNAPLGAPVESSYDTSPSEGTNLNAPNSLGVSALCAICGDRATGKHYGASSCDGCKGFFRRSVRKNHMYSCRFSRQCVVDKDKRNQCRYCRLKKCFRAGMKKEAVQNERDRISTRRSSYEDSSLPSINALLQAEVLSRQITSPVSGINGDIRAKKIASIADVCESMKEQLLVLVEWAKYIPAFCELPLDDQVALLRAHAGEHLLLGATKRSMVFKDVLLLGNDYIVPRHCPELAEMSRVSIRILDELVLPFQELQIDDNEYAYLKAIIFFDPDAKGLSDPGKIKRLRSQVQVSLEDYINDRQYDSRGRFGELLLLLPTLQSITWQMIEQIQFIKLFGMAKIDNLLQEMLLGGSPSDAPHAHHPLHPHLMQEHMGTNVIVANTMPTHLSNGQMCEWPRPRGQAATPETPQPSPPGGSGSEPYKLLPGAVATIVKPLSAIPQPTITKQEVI
As to the kind of experiment: protein-binding microarray. As to conditions: COS-7 nuclear extract on double-stranded Agilent 4x180k PBM; binding buffer, salt, pH and temperature not given; high values mean tight binding; double strand, one strand shown; sequences stand for … in …GCCTAGGGAGATTAGAGTATCGGTCGA
As to AGGCAGGCTGAGTCAGTTTAGTCCTGGATG, the binding signal (log2 normalized intensity) is 0.0385. Then GACATCTGCTTCCAAAGAGCTCAACCTGTG, with -1.27; and CAGCCCCATCCCCCAATACACACACACCCC, with 6.49; and GAAAATATTTCTCTGAACTTTGACCTATAG, with 9.31. On to AATGTAAACTCCAAGGAGCAAATCCGTAAG, for which the binding signal (log2 normalized intensity) is -1.3. Regarding TGAATTGATTGCCAAGAGGGAGGGGTCAGG, the binding signal (log2 normalized intensity) worked out at 2.15. Then CAAACTGGGACCTGTGACACTCTGCTGCCT, with -1.2. Then GAGTACTTGGACTTTAACCTTTAGATTACT, with 7.94. Then CCCCCAGGTAGCTGCCAATGCAAATCCCAG, with 0.341; and TCAAAGGGCAAAGGAATAAAATAGCTGCCT, with -1.23. AAGATCAGTATAGTTAGGGCCTTGCAGGGG: the binding signal (log2 normalized intensity) came out at 0.0399. Then TGCGCTTAGTCCATGACGCAAGCGAGTAAG, with -0.901; and TGGGCTCCTGCCTTGGAGAAGTGAACTTTG, with 5.62; and ACATAAGCAGAGCCAAGTGGTCATTACCTC, with -1.1. Turning to ACCCAGACGAGCTGTCACTGGCTGCTGCTC, the binding signal (log2 normalized intensity) is -1.42. Consider CACATACACACACACACACACACATTGCAG, for which the binding signal (log2 normalized intensity) was -1.34. With CTTCCTCTTCTTCACCGGAGATTTACATTC the figure was 0.428.

As for GTTATCTCTCAACTCAGTGAGGGCTATTGA, the binding signal (log2 normalized intensity) was -0.789.

With AGCTGAGCAGAGAGGACCCTGTGATCATAT, the binding signal (log2 normalized intensity) is 1.31. With GCAGCCAGTTCTGGACGGCAGATGCAGAGT the figure was -1.25. With CCCTAGGAAGGATAAGAGCAAGAAACAGCA, the binding signal (log2 normalized intensity) is -1.39. With GAAGACCAAAGTTCTTATTTGCTGAGGAAG the figure was 0.382; with GGAAGGGTATGCATGGAATGCAGGAGATCC, -1.07. With AACATCATAGAGTGTACTTATGCAGACCTG the figure was 0.968; with TGTTCACTCTAGGAACTTGTCTAAAAACAT, -1.36; with GGCCCAGCTGGTTTGAAGAATGTGGTCTGG, 1.25.

Consider TGACCTTTGCTCCAGTTCCCAATAATTTCC, for which the binding signal (log2 normalized intensity) was 5.13. Then AAATGAAGCAACACTTTCTGACCTTTAAGC, with 5.45; and AATCACACTAATCTGTCAGAAAACCCACGC, with -0.993. In the case of AAGGGCAAGTGACTGATAAGGCTAAGTGGA, the binding signal (log2 normalized intensity) was -1.35. With GCCAAGTTGAGGAGTTTGTACTTTATCCTA the figure was 4.03. Then CACTCTACTCTCTTTGGAGTGCTCCCGCCT, with 1.03; and AGTGAAGGTTCAGTGAAGTAGTGTGTATGA, with 1.82. Then GGCCTCCACACATTGCCACACTATTTACAC, with -0.502. For the sequence GGACTTCTCTGCCCTCTTCCCTCTACCTCT, the binding signal (log2 normalized intensity) was found to be 1.97. As to ATCTAGGTGAGGGATGAGGACTTTGATCAG, the binding signal (log2 normalized intensity) is 6.79.

Take TGCTCTCAGCACACTCTGGTACCATGGATG: the binding signal (log2 normalized intensity) is 0.953. Then CTAGCAAGTGCCAAGATGCTAAGGCAAGAT, with -1.24; and GAGTTATCTTCCTCCCCCCTTGGCTACATG, with 4.15. Regarding AAATAAGGGAGGTAAAAGTCCAACAGGGTT, the binding signal (log2 normalized intensity) amounted to 2.8. In the case of TTTAACTTTTGGGATCAGCAATGCTCAGCC, the binding signal (log2 normalized intensity) is -1.29. AGACAAGGCACCAAAGGAATCTACATAACA: the binding signal (log2 normalized intensity) is -1.44. With CCTACATTCCACCCTCATTTGCTTGACCCG the figure was 3.98; with CGGAAGCCTTCCCCGCCCGCAGCCCAGTCT, 3.88. Then GCCAAATGACTCACTCAAGGCAGCTCAGCT, with -1.17; and GGTGGCCGAGCAGGACGCTACCCGCTTGGC, with -1.31; and ACATTCAGGACACTTCTGAAAAAAATATTG, with -1.3.

CAGGGAGATTTCCTGGGAGAGAAAAGCAAG: the binding signal (log2 normalized intensity) was -1.41.

Consider CCTTTAGTCTCTAGCCCCGCCCAGATGTCT, for which the binding signal (log2 normalized intensity) is 4.07.

With GTTGTAGCAGTTCACACTCCCACCAGCATG, the binding signal (log2 normalized intensity) was -1.3. Then AAGGCAATATCACTTGTTTGCACAAAGGGT, with 0.594; and AGGACTTTGGACCGTCTTGTGGATCCTTGG, with 5.27. With CAGGTTGAGTCCAGCCTGTGGTGGGAAACT the figure was 0.358; with GCAGAGTTGGGCAGAAGGTGTTTCAGATGG, 0.573; with TCTCTCGCGAGAGCCGAAGTCTCTCGCCGA, -1.27. With TGTTCTCTGTACGGAAGGCCGGGCCTCAAG the figure was -1.32.

For GAGCAGGGTATCAGTTGAACAGAATAGAGG, the binding signal (log2 normalized intensity) was -1.28. As to TAAGGGTAGAGACCTTTGTTTTGTTTTCAA, the binding signal (log2 normalized intensity) is 1.16. For AGTCTGAGGCTGCTCTCTGTCCCTGCACCC, the binding signal (log2 normalized intensity) was 1.69. As to CGGGCGGGGGGTGGGGTGGAAGCTATGCCT, the binding signal (log2 normalized intensity) is -1.34. With TAAGATATTGGTAAGTTAAGTAACTCTCCA the figure was -1.05. Then CAACCATCAAAGGTCACTTTACAGATAAAG, with 3.01; and TGCAGTGTCCATGGTGACCATGTGATGTGA, with 1.26. Then TCACCACTTCAAGCTTGGTATGCTTAAGTG, with -0.327. On to CCCTGCACCCTACCCCCATACTTTATTTAG, for which the binding signal (log2 normalized intensity) was 2.76. Then ACGATGTGTAAACAAGTGAGCATGGCTGTG, with 0.481; and TGATTTATTCAGGCAATGTCACGTTTATTT, with 0.812; and AGGGACCCTTCCTCGGTGGAGTTGACACAG, with 0.938. Then GAAATTCAGGCTGAGGTGCTCTCAGATAAG, with -1.02; and GACCCGAGTGCCCTTTGGCAAACAGGAGCT, with 2.19; and ACTAGGAGCCTGCACGCCTGTTCACATTCC, with -1.25.

On to ACAATGTGAGCAGGTGTGTGGCATCTTGGG, for which the binding signal (log2 normalized intensity) came out at 0.622. As to TTAGTGCATAACTTTTGAATCCTCTTTGAG, the binding signal (log2 normalized intensity) was -0.917. With GGAATGCTGAAGGGAAGGCTGCCGTCCTCA the figure was -1.32; with CATTTTGTCTTTTCTCCCCTGACTACCAGC, 2.34; with AGTTGGAGAAGAGCAAAGATCATCTGGTGG, 1.16.

For AAGCTGAATATTTATCAGATACAGGAGATC, the binding signal (log2 normalized intensity) stood at 0.82. Turning to CCCACTTGTATGTCCAAGGGTCACTCGACA, the binding signal (log2 normalized intensity) was determined as 4.12. As to ACAGGGCTGGGATAACCGAGGCTGACAGCA, the binding signal (log2 normalized intensity) was -1.32. With AATGAGGACGTGTGTGTTCTGGACTTCTCT the figure was 2.4; with TTCGTTGAAAGCTGCTTCCCAGTTGCTCTG, -1.13. Then CCGAGGCCTTGAGCATACAAAACCCCTTAT, with 1.53; and GAAACACATTCTTAGACAACACACCACCTG, with -1.29.

For CATCTTCTTATCTGAGGTTTGACTTTGAGG, the binding signal (log2 normalized intensity) was determined as 2.01. With TGCGGTAATCCTTACGGCCCTGTGGTGTTC the figure was 1.63; with ACGTCTGTTAACCAAGATACTGGGTCAGAG, 0.44; with AGGAGTGTCTTTCTCCTTGAACACAGTGTT, 1.24.

On to GCCCTTTGACCTCTCTCTCCTAACTATGGT, for which the binding signal (log2 normalized intensity) is 6.06.

TGGTGAGTCAGTTCCCCTGCGGACTCTGGA: the binding signal (log2 normalized intensity) was found to be 2.91. On to ACTTATCAGAGGAAATTCAGATCAAAGCAA, for which the binding signal (log2 normalized intensity) is -1.27. With AGGGTGACACTGCTCTCTCCAGGGGAGGGT the figure was -1.31. Then AACCCCCAAAACTGCCTGATAATCTTATCA, with 2.77.

For GTGAGGCTGTGATGTTTGCCCATGATCATA, the binding signal (log2 normalized intensity) worked out at 0.346.

These data come from publication PMC10726135.
